# Measured values: the supplement of paper PMC8728848
# The list shows a part of the results.
# B1: ABA (Agaricus bisporus), Q00022 (protein)
# chain: MTYTISIRVYQTTPKGFFRPVERTNWKYANGGTWDEVRGEYVLTMGGSGTSGSLRFVSSDTDESFVATFGVHNYKRWCDIVTNLTNEQTALVINQEYYGVPIRDQARENQLTSYNVANAKGRRFAIEYTVTEGDNLKANLIIG
# Legend:
# Assay in all cases: glycan array binding signal (z-score within array); higher = stronger binding
# Conditions in all cases: glycan notation: IUPAC condensed, linker removed
# [1] = target: Fuc(a1-2)Gal
# Procedure, shortened: (§1)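 Glycan array data came from 3228 arrays in the Consortium for Functional Glycomics database, and only arrays with an available protein sequence were kept. Glycan names were put into IUPAC-condensed notation, and columns mapping to the same glycan were averaged. The binding signal is a within-array Z-score, averaged across arrays of one protein sequence run at different concentrations or buffers and across linkers. A negative Z-score can be read as non-binding.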
# [2] = target: Fuc(a1-2)Gal(b1-3)GalNAc
# Procedure, shortened: as §1
# [3] = target: Fuc(a1-2)Gal(b1-3)GalNAc(a1-3)[Fuc(a1-2)]Gal(b1-4)Glc
# Procedure, shortened: as §1
# [4] = target: Fuc(a1-2)Gal(b1-3)GalNAc(a1-3)[Fuc(a1-2)]Gal(b1-4)GlcNAc
# Procedure, shortened: as §1
# [5] = target: Fuc(a1-2)Gal(b1-3)GalNAc(b1-3)Gal
# Procedure, shortened: as §1
# [6] = target: Fuc(a1-2)Gal(b1-3)GalNAc(b1-3)Gal(a1-4)Gal(b1-4)Glc
# Procedure, shortened: as §1
# [7] = target: Fuc(a1-2)Gal(b1-3)GalNAc(b1-4)[Neu5Ac(a2-3)]Gal(b1-4)Glc
# Procedure, shortened: as §1
# [8] = target: Fuc(a1-2)Gal(b1-3)GlcNAc
# Procedure, shortened: as §1
# [9] = target: Fuc(a1-2)Gal(b1-3)GlcNAc(b1-2)Man(a1-3)[Fuc(a1-2)Gal(b1-3)GlcNAc(b1-2)Man(a1-6)]Man(b1-4)GlcNAc(b1-4)GlcNAc
# Procedure, shortened: as §1
# [10] = target: Fuc(a1-2)Gal(b1-3)GlcNAc(b1-2)Man(a1-3)[Fuc(a1-2)Gal(b1-3)GlcNAc(b1-2)Man(a1-6)]Man(b1-4)GlcNAc(b1-4)[Fuc(a1-6)]GlcNAc
# Procedure, shortened: as §1
# [11] = target: Fuc(a1-2)Gal(b1-3)GlcNAc(b1-3)Gal(b1-4)Glc
# Procedure, shortened: as §1
# [12] = target: Fuc(a1-2)Gal(b1-3)GlcNAc(b1-3)GalNAc
# Procedure, shortened: as §1
# [13] = target: Fuc(a1-2)Gal(b1-3)GlcNAc(b1-3)[Fuc(a1-2)Gal(b1-3)GlcNAc(b1-6)]GalNAc
# Procedure, shortened: as §1
# [14] = target: Fuc(a1-2)Gal(b1-3)GlcNAc(b1-3)[Gal(b1-4)GlcNAc(b1-6)]Gal(b1-4)Glc
# Procedure, shortened: as §1
# [15] = target: Fuc(a1-2)Gal(b1-3)GlcNAc(b1-3)[Neu5Ac(a2-6)Gal(b1-4)GlcNAc(b1-6)]Gal(b1-4)Glc
# Procedure, shortened: as §1
# [16] = target: Fuc(a1-2)Gal(b1-3)GlcNAc6S
# Procedure, shortened: as §1
# [17] = target: Fuc(a1-2)Gal(b1-3)[Fuc(a1-4)]GlcNAc
# Procedure, shortened: as §1
# [18] = target: Fuc(a1-2)Gal(b1-3)[Fuc(a1-4)]GlcNAc(b1-2)Man(a1-3)[Fuc(a1-2)Gal(b1-3)[Fuc(a1-4)]GlcNAc(b1-2)Man(a1-3)]Man(b1-4)GlcNAc(b1-4)GlcNAc
# Procedure, shortened: as §1
# [19] = target: Fuc(a1-2)Gal(b1-3)[Fuc(a1-4)]GlcNAc(b1-2)Man(a1-3)[Fuc(a1-2)Gal(b1-3)[Fuc(a1-4)]GlcNAc(b1-2)Man(a1-6)]Man(b1-4)GlcNAc(b1-4)[Fuc(a1-6)]GlcNAc(b1-4)[Fuc(a1-6)]GlcNAc
# Procedure, shortened: as §1
# [20] = target: Fuc(a1-2)Gal(b1-3)[Fuc(a1-4)]GlcNAc(b1-3)[Fuc(a1-3)[Gal(b1-4)]GlcNAc(b1-6)]Gal(b1-4)Glc
# Procedure, shortened: as §1
# [21] = target: Fuc(a1-2)Gal(b1-3)[Fuc(a1-4)]GlcNAc(b1-3)[Gal(b1-4)GlcNAc(b1-6)]Gal(b1-4)Glc
# Procedure, shortened: as §1
# [22] = target: Fuc(a1-2)Gal(b1-4)Fuc(a1-3)]GlcNAc(b1-2)Man(a1-3)[Fuc(a1-2)Gal(b1-4)[Fuc(a1-3)]GlcNAc(b1-2)Man(a1-6)]Man(b1-4)GlcNAc(b1-4)GlcNAc
# Procedure, shortened: as §1
# [23] = target: Fuc(a1-2)Gal(b1-4)Glc
# Procedure, shortened: as §1
# [24] = target: Fuc(a1-2)Gal(b1-4)Glc6S
# Procedure, shortened: as §1
# [25] = target: Fuc(a1-2)Gal(b1-4)GlcNAc
# Procedure, shortened: as §1
# [26] = target: Fuc(a1-2)Gal(b1-4)GlcNAc(b1-2)Man
# Procedure, shortened: as §1
# [27] = target: Fuc(a1-2)Gal(b1-4)GlcNAc(b1-2)Man(a1-3)[Fuc(a1-2)Gal(b1-4)GlcNAc(b1-2)Man(a1-6)]Man(b1-4)GlcNAc(b1-4)GlcNAc
# Procedure, shortened: as §1
# [28] = target: Fuc(a1-2)Gal(b1-4)GlcNAc(b1-2)Man(a1-3)[Fuc(a1-2)Gal(b1-4)GlcNAc(b1-2)Man(a1-6)]Man(b1-4)GlcNAc(b1-4)[Fuc(a1-6)]GlcNAc
# Procedure, shortened: as §1
# [29] = target: Fuc(a1-2)Gal(b1-4)GlcNAc(b1-2)[Fuc(a1-2)Gal(b1-4)GlcNAc(b1-4)]Man(a1-3)[Fuc(a1-2)Gal(b1-4)GlcNAc(b1-2)Man(a1-6)]Man(b1-4)GlcNAc(b1-4)GlcNAc
# Procedure, shortened: as §1
# [30] = target: Fuc(a1-2)Gal(b1-4)GlcNAc(b1-3)Gal(b1-4)GlcNAc
# Procedure, shortened: as §1
# [31] = target: Fuc(a1-2)Gal(b1-4)GlcNAc(b1-3)Gal(b1-4)GlcNAc(b1-2)Man(a1-3)[Fuc(a1-2)Gal(b1-4)GlcNAc(b1-3)Gal(b1-4)GlcNAc(b1-2)Man(a1-6)]Man(b1-4)GlcNAc(b1-4)GlcNAc
# Procedure, shortened: as §1
# [32] = target: Fuc(a1-2)Gal(b1-4)GlcNAc(b1-3)Gal(b1-4)GlcNAc(b1-3)Gal(b1-4)GlcNAc
# Procedure, shortened: as §1
# [33] = target: Fuc(a1-2)Gal(b1-4)GlcNAc(b1-3)GalNAc
# Procedure, shortened: as §1
# [34] = target: Fuc(a1-2)Gal(b1-4)GlcNAc(b1-3)[Fuc(a1-2)Gal(b1-4)GlcNAc(b1-6)]GalNAc
# Procedure, shortened: as §1
# [35] = target: Fuc(a1-2)Gal(b1-4)GlcNAc(b1-3)[Fuc(a1-3)[Gal(b1-4)]GlcNAc(b1-6)]Gal(b1-4)Glc
# Procedure, shortened: as §1
# [36] = target: Fuc(a1-2)Gal(b1-4)GlcNAc(b1-6)GalNAc
# Procedure, shortened: as §1
# [37] = target: Fuc(a1-2)Gal(b1-4)GlcNAc6S
# Procedure, shortened: as §1
# [38] = target: Fuc(a1-2)Gal(b1-4)[Fuc(a1-3)]GlcNAc
# Procedure, shortened: as §1
# [39] = target: Fuc(a1-2)Gal(b1-4)[Fuc(a1-3)]GlcNAc(b1-2)Man(a1-3)[Fuc(a1-2)Gal(b1-4)[Fuc(a1-3)]GlcNAc(b1-2)Man(a1-6)]Man(b1-4)GlcNAc(b1-4)[Fuc(a1-6)]GlcNAc
# Procedure, shortened: as §1
# [40] = target: Fuc(a1-2)Gal(b1-4)[Fuc(a1-3)]GlcNAc(b1-2)[Fuc(a1-2)Gal(b1-4)[Fuc(a1-3)]GlcNAc(b1-4)]Man(a1-3)[Fuc(a1-2)Gal(b1-4)[Fuc(a1-3)]GlcNAc(b1-2)Man(a1-6)]Man(b1-4)GlcNAc(b1-4)GlcNAc
# Procedure, shortened: as §1
# [41] = target: Fuc(a1-2)Gal(b1-4)[Fuc(a1-3)]GlcNAc(b1-3)Gal(b1-4)[Fuc(a1-3)]GlcNAc
# Procedure, shortened: as §1
# [42] = target: Fuc(a1-2)Gal(b1-4)[Fuc(a1-3)]GlcNAc(b1-3)Gal(b1-4)[Fuc(a1-3)]GlcNAc(b1-3)Gal(b1-4)[Fuc(a1-3)]GlcNAc
# Procedure, shortened: as §1
# [43] = target: Fuc(a1-2)Gal(b1-4)[Fuc(a1-3)]GlcNAc(b1-3)GalNAc
# Procedure, shortened: as §1
# [44] = target: Fuc(a1-2)Gal(b1-4)[Fuc(a1-3)]GlcNAc(b1-3)[Neu5Ac(a2-6)Gal(b1-4)GlcNAc(b1-6)]Gal(b1-4)Glc
# Procedure, shortened: as §1
# [45] = target: Fuc(a1-2)Gal3S(b1-4)GlcNAc
# Procedure, shortened: as §1
binder,measurement,setting,value
B1,glycan array binding signal (z-score),[1],-0.177
same,glycan array binding signal (z-score),[2],-0.205
same,glycan array binding signal (z-score),[3],-0.201
same,glycan array binding signal (z-score),[4],0.475
same,glycan array binding signal (z-score),[5],-0.2
same,glycan array binding signal (z-score),[6],-0.207
same,glycan array binding signal (z-score),[7],-0.192
same,glycan array binding signal (z-score),[8],-0.207
same,glycan array binding signal (z-score),[9],0.984
same,glycan array binding signal (z-score),[10],-0.085
same,glycan array binding signal (z-score),[11],-0.21
same,glycan array binding signal (z-score),[12],-0.262
same,glycan array binding signal (z-score),[13],-0.172
same,glycan array binding signal (z-score),[14],-0.258
same,glycan array binding signal (z-score),[15],-0.276
same,glycan array binding signal (z-score),[16],-0.174
same,glycan array binding signal (z-score),[17],-0.176
same,glycan array binding signal (z-score),[18],0.449
same,glycan array binding signal (z-score),[19],-0.143
same,glycan array binding signal (z-score),[20],-0.186
same,glycan array binding signal (z-score),[21],-0.223
same,glycan array binding signal (z-score),[22],-0.209
same,glycan array binding signal (z-score),[23],-0.118
same,glycan array binding signal (z-score),[24],-0.229
same,glycan array binding signal (z-score),[25],-0.252
same,glycan array binding signal (z-score),[26],-0.12
same,glycan array binding signal (z-score),[27],0.091
same,glycan array binding signal (z-score),[28],0.523
same,glycan array binding signal (z-score),[29],-0.048
same,glycan array binding signal (z-score),[30],-0.211
same,glycan array binding signal (z-score),[31],-0.157
same,glycan array binding signal (z-score),[32],-0.211
same,glycan array binding signal (z-score),[33],-0.137
same,glycan array binding signal (z-score),[34],-0.179
same,glycan array binding signal (z-score),[35],-0.233
same,glycan array binding signal (z-score),[36],-0.156
same,glycan array binding signal (z-score),[37],-0.289
same,glycan array binding signal (z-score),[38],-0.203
same,glycan array binding signal (z-score),[39],-0.137
same,glycan array binding signal (z-score),[40],0.231
same,glycan array binding signal (z-score),[41],-0.248
same,glycan array binding signal (z-score),[42],-0.17
same,glycan array binding signal (z-score),[43],-0.202
same,glycan array binding signal (z-score),[44],-0.228
same,glycan array binding signal (z-score),[45],-0.269
